# Data reported in ChEMBL document CHEMBL4888484, “Replenishing the malaria drug discovery pipeline: Screening and hit evaluation of the MMV Hit Generation Library 1 (HGL1) against asexual blood stage Plasmodium falciparum ,using a nano luciferase reporter read-out” (2022).
# Among all 150,000 compounds or so, about 540 (0.36%) showed an effect of 50% or more. Some of the results follow.
# System: Plasmodium falciparum
# Experiment: Primary screen in NF54 nanoGlo assay, in single point, at 2uM, 72h; a lower Z score goes with more inhibition
# Format: functional, Erythrocyte
# Settings: timepoint 72 hour
Compound,% Inhibition [%],Z score
Cc1ccnc(-n2cc(S(=O)(=O)NC(=O)c3c(C4CC4)cnn3C)cn2)c1,-6,0.85
CC(C)(C)c1ncc(C(=O)Nc2cccc(CCC(=O)O)c2)cn1,-1,0.08
Cc1nc(N2CCCC2)nc(C)c1NC(=O)c1ccccn1,3,-0.48
CC(NC(=O)C1CCCC1)C(=O)N1C[C@@H](F)C[C@H]1CO (stereo partly specified),-11,1.49
O=C(Nc1ccc(OCc2ccco2)cc1)N1C[C@@H]2[C@H](C1)[C@H]1CC[C@@H]2O1,-21,3.23
Cc1nc(Nc2ccc3c(c2)OCCO3)c2c(C)noc2n1,-11,1.33
Cc1ccc(CN(Cc2ccc(F)cc2)C(=O)CN(C[C@H]2CCCO2)C(=O)Nc2ccc(C#N)cc2)o1,-16,1.57
Cn1cc(Cl)c(CNC(=O)[C@@H]2Cc3ccc(F)cc32)n1,-14,1.25
COCCc1nsc(N(C)Cc2ccc(O)cc2)n1,-10,1.15
O=C(NC1CCCCC1)[C@@H]1CCCc2ccccc21,-16,1.41
COCCN1C(=O)CC(CC(=O)N(C)C(C)c2nc(C)cs2)(c2ccccc2OC)C1=O (stereo unspecified),1,-0.22
COc1ccc(-c2cc(-c3cc(C#N)n(C)c3C)c(C#N)c(N)n2)cn1,-21,2.63
Cc1ccc(CC(=O)NOCC(=O)N(C(C)C)C(C)C)cc1,-9,1.17
O=C([C@H]1C[C@@H]1C(F)F)N1CCn2ccnc21,2,-0.17
Cc1ccc(C(=O)N2CCn3cccc3[C@H]2c2ccccn2)cc1OCCN,4,-0.6
CN(CCC(=O)Nc1ccnn1C1CCCC1)Cc1ccccc1OC(F)(F)F,0,-0.03
O=C(NCc1nccs1)c1cc(F)c[nH]1,-9,1.73
CNC(=O)N1CCC(OC(C)=O)CC1,-10,1.77
Cc1ccc(OCCc2nnc(NC(=O)[C@@H]3C=CCN3)s2)cc1,-10,1.5
C[C@H]1CCCN(C(=O)CCS(=O)(=O)C2CCCC2)C1,-9,0.77
CCOCC(=O)N1CCC[C@@]2(CCC(=O)N(Cc3cnc(C)cn3)C2)C1,-9,1.21
O=c1c2ccccc2sn1Cc1cc(=O)n2ccsc2n1,-1,0.15
C[C@H]1C(=O)N(C)CCN1Cc1ccc2ccccc2n1,4,-0.62
Cc1nn(C(C)C)c(C)c1S(=O)(=O)Nc1nc(C(C)C)nn1C,0,0.04
Cc1onc(-c2cccs2)c1C(=O)N1CCn2ncnc2C1,-1,0.24
FC(F)(F)c1ccnc(Oc2cccc(-n3cncn3)c2)n1,-4,0.57
NC(=O)[C@H](CC1CCCCC1)NC(=O)[C@@H]1CN(C(=O)c2cccnc2)CCN1C(=O)C1CCCCC1,6,-0.75

Compound,% Inhibition [%],Z score
CCN1C(=O)C[C@H](C(=O)NCc2cccc(C(C)=O)c2)[C@H]1c1nccn1CC,4,-0.59
COc1ccc([C@H](CNS(=O)(=O)c2ccc(F)cc2)N2CCCCC2)cc1,-16,2.36
Cc1cccc(-c2nc3ccc(C(=O)NCc4ccc5c(c4)OCO5)cc3nc2-c2cccc(C)c2)c1,9,-1.14
Cc1ccc(C(=O)Nc2sc3c(c2C(N)=O)CCCCCCCCCC3)cc1,4,-0.53
Cc1ccc(CN2C[C@]34C=C[C@H](O3)C(C(=O)NCc3ccc5c(c3)OCO5)[C@H]4C2=O)cc1 (stereo partly specified),-9,1.36
O=C(Nc1ccc(OCc2ccccc2)cc1)C1CCN(S(=O)(=O)Cc2ccc(Cl)cc2)CC1,-7,1.4
CC[C@H](C)N1CCC(O)(c2ccc3oc(C(=O)N(C)Cc4ccc5ncccc5c4)cc3c2)CC1,-9,1.13
Cc1c(C(=O)NC2CC(C(=O)O)c3ccccc32)ccn1C (stereo unspecified),-3,0.57
COC[C@H](NC(=O)Nc1cnns1)c1ccco1,10,-1.58
C[C@H](NS(=O)(=O)C1CC1)c1ccc(F)cc1F,3,-0.3
N#Cc1ccc(NC(=O)N2CCC3(CC2)C(=O)N(CC(=O)NC[C@H]2CCCO2)CN3c2ccccc2)cc1,-13,1.15
COc1ccc(F)cc1S(=O)(=O)N1CCN(c2nccs2)C(=O)C1,12,-1.53
CN(C)CCN(C)C(=O)C(=O)Nc1ccc(N(C)C)c(Cl)c1,-3,0.37
CCc1ncnc(N2CC[C@H](c3ncccn3)C2)c1F,-6,0.7
CC[C@@H](C(=O)NCc1ccc(C)cc1)n1c(=O)n(-c2cccc(C(F)(F)F)c2)c(=O)c2sccc21,5,-0.51
Cc1cc(CN(C)C(=O)c2cc(=O)[nH]c3ccc(F)cc23)no1,-8,0.8
O=C(O)[C@H]1CN(c2nccc(C(F)(F)F)n2)CC12CCC2,-5,0.62
Cc1nc(C2CCCCC2)sc1C(=O)N1CCC12COC2,34,-3.81
CC(NC(=O)OC(C)(C)C)C1CCCN(CCn2cccn2)C1 (stereo unspecified),-12,1.23
CCc1cc(NC(=O)[C@@H](C)COC)nc(C)n1,5,-0.67
CC(C)Cc1nnc(C[C@H]2CCN(S(=O)(=O)c3ccccc3F)C2)o1,-13,1.94
CCCc1nnc(N[C@@H](C)Cn2nc(C)cc2C)o1,26,-3.26
CC1CCC(C(=O)N2CC(=O)N(C)c3ccccc32)O1 (stereo unspecified),-4,0.52
CCC(=O)N[C@@H]1CC[C@@]2(OC)CCN(C(=O)c3ccc4[nH]nnc4c3)[C@H]2C1,-11,2.26
CCCc1nc(CN(C)Cc2cncs2)no1,-13,1.42
CC(C)(C)C(=O)N1CCC(CCOCc2ccc(F)cc2)CC1,-16,3.03
